# Reference: PubChem BioAssay AID463173 (ICCB-Longwood Screening Facility, Harvard Medical School, 2010)
# Hit rate of the full screen: of about 52,000 compounds, about 1,700 (3.3%) were called active. Rule as the data show it: active = survival mostly below about 52% (no sharp cut-off); inactive = mostly above about 56%. The list shows a part of the results.
# Test system: Wild type
# Test: growth inhibition of S. aureus wild type versus tarO mutant, primary screen, teichoic acid synthesis inhibitors, RN4220, OD600 (AID 463173)
# Details: S. aureus RN4220 wild type/DeltatarO growth, OD600, 18 h, stronger effect = lower value, screened at 18.75 µg/mL (by protocol)
row,Structure (SMILES),survival
1,COc1cc(OC)c(NC(=O)Cn2cnc3c(nc4n3CCCCC4)c2=O)cc1Cl,inactive: 59%
2,O=C(NCCN1CCCC1)c1ccco1,inactive: 95%
3,O=C(Nc1cccc(Cl)c1)c1cc(S(=O)(=O)N2CCC3(CC2)OCCO3)ccc1F,inactive: 121%
4,Cc1nc(SCC(N)=O)c2c3c(sc2n1)CCCC3,inactive: 90%
5,CCOC(=O)c1ccccc1NC(=O)COc1cc(=O)n(CC)c2ccccc12,inactive: 63%
6,Cc1cc(OCC(=O)Nc2nc3c(s2)CCCC3)cc(C)c1Cl,inactive: 82%
7,Cc1ccc(-n2ncc3c(N4CCCCC4)ncnc32)cc1,inactive: 76%
8,Cc1cccc(C)c1NC(=O)Cn1c(=O)cc(C)c2c(C)nn(-c3cccc(Cl)c3C)c21,inactive: 92%
9,COc1ccc(Cl)cc1NC(=O)c1sc2nc3c(cc2c1N)CN(C)CC3,inactive: 81%
10,O=C(CCC1N=C2c3ccccc3N=C(SCc3ccc(Cl)cc3)N2C1=O)NC1CCCCC1 (centres undefined),inactive: 71%
11,CCOc1ccccc1NC(=O)Cn1c(=O)n(Cc2ccccc2)c(=O)c2c3c(sc21)CN(C(C)=O)CC3,inactive: 84%
12,O=C(CN1CCN(C2CCCCC2)C(=O)C1=O)Nc1ccc(Cl)cc1,inactive: 93%
13,CC(C)CCN1C(=O)c2ccccc2CC1(C)C(=O)NC1CCCCC1 (centres undefined),inactive: 96%
14,CCC(=O)Nc1ccccc1C(=O)OCc1cc(=O)n2cc(C)sc2n1,inactive: 78%
15,O=C(NC1C2CC3CC(C2)CC1C3)c1cccnc1 (centres undefined),inactive: 94%
16,COc1ccc(OC)c(NC(=O)Cn2c(CCC(=O)O)ccc2-c2ccccc2)c1,inactive: 104%
17,COc1cc(C(C(=O)NC2CCCCC2)N(Cc2ccco2)C(=O)c2cnccn2)cc(OC)c1OC (centres undefined),inactive: 115%
18,Cc1ccc(-c2nn(CO)c(=S)o2)cc1,inactive: 91%
19,CCCN1CCN(C(=O)Cn2ncc3c4ccccc4n(Cc4cccc(Cl)c4)c3c2=O)CC1,inactive: 80%
20,CC1CC(=O)N(CC(=O)Nc2ccc(OC(F)(F)F)cc2)c2ccccc2S1 (centres undefined),inactive: 89%
21,CCOc1ccc(-n2nc3ccc(NC(=O)c4ccc(C)cc4C)cc3n2)cc1,inactive: 95%
22,Cc1ccc(CCNC(=O)c2cc3cc(S(=O)(=O)N4CCCCC4)ccc3n2C)cc1,inactive: 72%
23,Cc1cccc(N(C)C(=O)c2cc3c(=O)oc4ccc(C)cc4c3s2)c1,inactive: 120%

row,Structure (SMILES),survival
1,COC(=O)c1ccc(C(=O)OC)c(NC(=O)c2cnn3c(C(F)F)cc(-c4ccc(C)cc4)nc23)c1,inactive: 73%
2,CCN1CCOC(=O)C1CC(=O)Nc1cc(Cl)ccc1C (centres undefined),inactive: 53%
3,CCN1CCN(CCCNC(=O)c2cnn(-c3ccc(OC)cc3)c2C2CCN(C(=O)OC(C)(C)C)CC2)CC1,inactive: 78%
4,CCOC(=O)c1cccc(NC(=O)CC2C(=O)N(c3ccc(F)cc3)C(=O)N2Cc2cccc(OC)c2)c1 (centres undefined),inactive: 74%
5,CC1=Nc2cc(C(=O)NC3CCCC3)ccc2Sc2ccc(Cl)cc21,inactive: 73%
6,CCOC(=O)c1ccc(Nc2nc3ccccc3n3c(C)nnc23)cc1,inactive: 84%
7,CCC(c1nnnn1C1CCCC1)N(Cc1cccs1)Cc1cc2cccc(C)c2[nH]c1=O (centres undefined),inactive: 117%
8,CCOc1ccc(-c2noc(CSc3nnc(Cc4ccccc4)n3-c3ccc(F)cc3)n2)cc1,inactive: 65%
9,CCOCCc1nn2c(=O)cc(COC(=O)c3ccccc3NC(=O)CC(C)C)nc2s1,inactive: 70%
10,CC(C)CN(CC(C)C)S(=O)(=O)c1ccc(C(=O)Nc2sc3c(c2C(N)=O)CCN(C(C)C)C3)cc1,inactive: 80%
11,COc1ccc(N(C)S(=O)(=O)c2ccc3c(c2)n(C)c(=O)c(=O)n3C)cc1,inactive: 83%
12,COc1cccc(C(=O)Nc2c3c(nn2-c2ccc(C)cc2C)CS(=O)(=O)C3)c1OC,inactive: 136%
13,O=C(Cn1c(-c2cccs2)cc2cc(F)ccc21)N1CCCCC1,inactive: 72%
14,Cc1cccc(N2CCN(c3ncnc4c3cnn4-c3ccc(Cl)cc3)CC2C)c1 (centres undefined),inactive: 83%
15,O=C(O)c1cc(-c2ccccc2)on1,inactive: 100%
16,COC(=O)c1scc(-c2ccc(C)cc2)c1S(=O)(=O)N1CCN(c2ccccc2F)CC1,inactive: 133%
17,O=c1c2ccccc2nc(-c2ccccc2)n1CCCn1ccnc1,inactive: 113%
18,COc1ccc(CNC(=O)Cn2ncc3c(=O)oc4ccc(C)cc4c32)c(OC)c1,inactive: 113%
19,Cn1nnnc1SCC(=O)OC1CCCCC1,inactive: 88%
20,Cc1cc(=O)n2[nH]c(NC(=O)c3cccc(Cl)c3)nc2n1,inactive: 89%
21,COc1ccccc1CCNC(=O)CCCn1c(=O)c2cccn2c2cccnc21,inactive: 80%
22,CC1=Nc2cc(C(=O)N3CCCCC3)ccc2Sc2ccc(C)cc21,active: 3%
23,Cc1c(C(=O)NCc2ccc(OC(C)C)cc2)sc2ncnc(N(C)C3CCCCC3)c12,inactive: 73%

row,Structure (SMILES),survival
1,CCCC(=O)Nc1nnc(SCc2cc(=O)n3cccc(C)c3n2)s1,inactive: 99%
2,COc1ccc(-c2nc(CN3CCC(C(=O)NCc4ccc(F)cc4)CC3)c(C)o2)cc1OC,inactive: 83%
3,CCOC(=O)c1c(NC(=O)/C=C/c2ccc(Cl)cc2)sc2c1CCC(C)C2 (centres undefined),inactive: 55%
4,COc1ccc(CCC(=O)NC2CC(=O)N(c3ccccc3)C2)cc1 (centres undefined),inactive: 131%
5,O=C(NCC(c1ccc2c(c1)OCO2)N1CCN(c2ccccc2F)CC1)c1ccccc1F (centres undefined),inactive: 83%
6,O=c1[nH]cnc2nc3c4ccccc4c4ccccc4c3nc12,inactive: 112%
7,CCOC(=O)c1c(C)oc2nc(C)nc(N3CCN(c4cccc(C(F)(F)F)c4)CC3)c12,inactive: 71%
8,COc1ccc(C2CC(=O)N(CC(=O)Nc3ccc(C(C)=O)cc3)c3ccccc3S2)cc1OC (centres undefined),inactive: 93%
9,CCCN(CCC)CCNC(=O)c1nn(C)c2c1CS(=O)(=O)c1ccccc1-2,inactive: 93%
10,Cc1ccccc1C(=O)n1nc(-c2ccco2)nc1NCc1cccs1,inactive: 84%
11,Cc1ccc2[nH]c(CSc3nnc(NC(=O)COc4ccc(F)cc4)s3)cc(=O)c2c1,inactive: 81%
12,CCCCc1nc2c(nnn2Cc2ccccc2)c(=O)[nH]1,inactive: 104%
13,COc1cc(Cl)c(C)cc1NC(=O)c1nn(C)c2c1CSc1ccccc1-2,inactive: 85%
14,O=C(NCc1nc(-c2ccccc2)no1)c1ccco1,inactive: 82%
15,O=C(CCCCn1c(=O)c2ccccc2n(Cc2cccc(Cl)c2)c1=O)NCc1ccc2c(c1)OCO2,inactive: 98%
16,COc1ccc(CNC(=O)c2cc(-c3ccc(Cl)cc3)n[nH]2)cc1,inactive: 74%
17,Cc1ccc2c(c1)N(CC(=O)N(Cc1cccnc1)C1CCCC1)C(=O)C(C)O2 (centres undefined),inactive: 111%
18,CCn1cc(C(=O)NCCc2ccccc2)c(=O)c2cc(S(=O)(=O)N3CCc4ccccc4C3)ccc21,inactive: 89%
19,O=S(=O)(NCCc1csc2nc(-c3ccc(Cl)cc3)nn12)c1ccc2c(c1)OCCO2,inactive: 75%
20,CCCN(CCC)CCCNC(=O)c1cn(C)c2ccc(S(=O)(=O)N3CCOCC3)cc2c1=O,inactive: 83%
21,CCCn1c2ccccc2c2cnn(CC(=O)NCCCN(Cc3ccccc3)C(C)C)c(=O)c21,inactive: 78%
22,CC(C)c1ccc(NC(=O)CN2C(=O)COc3ccc(S(=O)(=O)N4CCOCC4)cc32)cc1,inactive: 94%
23,COc1ccc(CCNc2nc(SCc3cccc(F)c3)nc3ccccc23)cc1OC,inactive: 80%

row,Structure (SMILES),survival
1,CNC(=O)C1C2C=CC3(O2)C1C(=O)N(C1CC1)C3C(=O)NCc1ccc(OC)cc1 (centres undefined),inactive: 100%
2,COc1ccc(-c2cc(C)no2)cc1S(=O)(=O)N1CCOc2ccc(Cl)cc21,inactive: 76%
3,CCCN1CCN(c2cc(-c3ccccc3)nc3cc(-c4cccc(F)c4)nn23)CC1,inactive: 89%
4,COc1ccc(Nc2cc(C(=O)NCCCN(C)C3CCCCC3)c3ccccc3n2)c(OC)c1,inactive: 92%
5,COC(=O)c1ccc2c(=O)n(CCCCCC(=O)NCc3ccc(OC)cc3)c(=O)[nH]c2c1,inactive: 70%
6,Cc1nn(-c2ccc(N3CCOCC3)nn2)c(C)c1CCC(=O)Nc1ccc(F)cc1F,inactive: 136%
7,O=C(Nc1ccc(NC(=O)c2ccccc2F)cn1)c1ccco1,inactive: 101%
8,COc1ccc(NC(=O)C2CCCN(S(=O)(=O)c3c(C)[nH]c(=O)[nH]c3=O)C2)cc1Cl (centres undefined),inactive: 84%
9,O=C(CSc1nccn1Cc1ccc(Cl)cc1)Nc1ccc2c(c1)OCO2,inactive: 78%
10,Cc1ccc(C)c(NC(=O)c2ccc3c(c2)CCN3S(=O)(=O)c2ccccc2)c1,inactive: 83%
11,CCC(Sc1nc2ncccc2o1)C(=O)Nc1cccc(C)c1 (centres undefined),inactive: 56%
12,O=c1[nH]cnc2c1nnn2Cc1ccccc1F,inactive: 92%
13,COc1ccc2oc(=O)c(-c3nc(-c4ccc(C)c(C)c4)cs3)cc2c1,inactive: 81%
14,O=C(Nc1ccc(Cl)c(C(F)(F)F)c1)C(Cc1ccccc1)NS(=O)(=O)c1cccc2nsnc12 (centres undefined),inactive: 61%
15,Cc1cc(C)cc(OCCSc2nc(-c3cccs3)nc3cc(=O)[nH]n23)c1,inactive: 60%
16,CCc1cc2c(cc3c(=O)n(CC(=O)NCCc4ccccc4)ncn32)s1,inactive: 85%
17,CCc1ccc(C2c3c(-c4ccccc4)n[nH]c3C(=O)N2c2ccc(C(=O)O)cc2)cc1 (centres undefined),inactive: 79%
18,O=C(CN1N=C(c2ccccc2)CCC1=O)NCc1ccc(F)cc1Cl,inactive: 78%
19,COc1cccc(-n2cc(C(=O)NCc3ccc(C)cc3)c3ccccc3c2=O)c1,inactive: 112%
20,O=C(NC1CC(=O)N(c2ccc(Cl)cc2)C1)c1ccc(S(=O)(=O)N2CCOCC2)cc1 (centres undefined),inactive: 91%
